Laboratory results published in patent publication US20260207767A1 (ANAVEON, published 2026).

T1: His-tagged recombinant CD25 (UniProt P01589 22-213, limits assumed)
T1 construct: also called IL-2R alpha chain
T1 sequence (looked up): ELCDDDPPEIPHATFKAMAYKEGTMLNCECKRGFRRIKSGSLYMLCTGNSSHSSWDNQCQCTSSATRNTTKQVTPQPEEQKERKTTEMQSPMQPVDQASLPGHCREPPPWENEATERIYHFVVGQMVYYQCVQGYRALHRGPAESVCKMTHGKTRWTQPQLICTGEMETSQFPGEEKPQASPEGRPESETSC

T2: trimeric IL-2 receptor (CD25/CD122/CD132) on HEK-Blue IL-2 reporter cells (UniProt P01589 22-272; P14784 27-551; P31785 23-369, limits assumed)
T2 sequence (looked up) 1: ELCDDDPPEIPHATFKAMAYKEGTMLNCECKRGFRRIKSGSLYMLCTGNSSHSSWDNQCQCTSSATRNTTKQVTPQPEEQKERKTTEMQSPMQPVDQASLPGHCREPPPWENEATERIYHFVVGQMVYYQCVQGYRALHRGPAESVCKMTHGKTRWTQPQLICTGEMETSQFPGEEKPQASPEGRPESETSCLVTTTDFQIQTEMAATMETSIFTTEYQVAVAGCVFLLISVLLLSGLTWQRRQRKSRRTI
T2 sequence (looked up) 2: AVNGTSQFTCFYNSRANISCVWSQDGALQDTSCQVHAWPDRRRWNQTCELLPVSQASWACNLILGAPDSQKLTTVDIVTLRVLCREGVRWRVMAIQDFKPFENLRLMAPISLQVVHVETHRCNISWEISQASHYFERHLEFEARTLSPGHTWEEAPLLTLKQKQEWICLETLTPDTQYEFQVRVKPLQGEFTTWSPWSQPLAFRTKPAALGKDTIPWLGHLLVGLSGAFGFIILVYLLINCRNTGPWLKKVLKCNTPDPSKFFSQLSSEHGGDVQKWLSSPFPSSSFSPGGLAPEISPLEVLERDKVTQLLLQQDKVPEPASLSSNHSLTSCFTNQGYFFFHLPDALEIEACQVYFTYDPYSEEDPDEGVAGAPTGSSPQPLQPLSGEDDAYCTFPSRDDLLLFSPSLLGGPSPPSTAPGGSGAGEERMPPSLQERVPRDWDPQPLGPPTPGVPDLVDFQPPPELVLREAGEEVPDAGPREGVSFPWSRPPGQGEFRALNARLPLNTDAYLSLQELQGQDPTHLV
T2 sequence (looked up) 3: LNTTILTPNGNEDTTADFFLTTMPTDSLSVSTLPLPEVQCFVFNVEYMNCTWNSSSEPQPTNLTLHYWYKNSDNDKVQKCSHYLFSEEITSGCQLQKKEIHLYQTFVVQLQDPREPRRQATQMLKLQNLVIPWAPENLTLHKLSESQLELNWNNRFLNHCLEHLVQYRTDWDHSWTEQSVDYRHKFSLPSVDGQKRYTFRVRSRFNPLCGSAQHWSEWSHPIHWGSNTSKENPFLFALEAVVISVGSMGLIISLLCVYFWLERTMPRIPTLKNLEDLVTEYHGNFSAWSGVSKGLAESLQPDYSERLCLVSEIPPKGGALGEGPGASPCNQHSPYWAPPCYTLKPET

T3: high affinity trimeric IL-2R on CD4+CD25+FoxP3+ Treg cells of murine splenocytes (mouse, UniProt P01590 22-268; P16297 27-539; P34902 23-369)
T3 sequence (looked up) 1: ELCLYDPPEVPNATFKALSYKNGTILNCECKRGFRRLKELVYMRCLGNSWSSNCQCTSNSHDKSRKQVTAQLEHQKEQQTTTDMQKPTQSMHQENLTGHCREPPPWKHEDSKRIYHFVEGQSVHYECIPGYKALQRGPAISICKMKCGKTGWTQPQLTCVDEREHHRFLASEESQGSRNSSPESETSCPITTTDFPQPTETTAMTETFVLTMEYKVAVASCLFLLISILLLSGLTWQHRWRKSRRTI
T3 sequence (looked up) 2: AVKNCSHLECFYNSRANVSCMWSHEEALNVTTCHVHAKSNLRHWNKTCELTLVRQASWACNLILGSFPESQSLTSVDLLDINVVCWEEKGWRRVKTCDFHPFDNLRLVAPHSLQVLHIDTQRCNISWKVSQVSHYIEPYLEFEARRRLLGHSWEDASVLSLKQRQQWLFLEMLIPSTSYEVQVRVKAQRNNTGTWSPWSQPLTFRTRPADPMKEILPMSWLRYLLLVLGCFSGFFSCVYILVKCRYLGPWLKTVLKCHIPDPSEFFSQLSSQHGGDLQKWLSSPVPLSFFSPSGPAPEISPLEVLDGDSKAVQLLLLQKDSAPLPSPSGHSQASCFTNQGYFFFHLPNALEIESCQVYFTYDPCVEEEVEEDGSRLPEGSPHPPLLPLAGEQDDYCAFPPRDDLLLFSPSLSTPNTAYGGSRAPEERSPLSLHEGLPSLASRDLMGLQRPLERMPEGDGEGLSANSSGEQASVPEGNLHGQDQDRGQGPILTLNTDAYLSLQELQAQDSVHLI
T3 sequence (looked up) 3: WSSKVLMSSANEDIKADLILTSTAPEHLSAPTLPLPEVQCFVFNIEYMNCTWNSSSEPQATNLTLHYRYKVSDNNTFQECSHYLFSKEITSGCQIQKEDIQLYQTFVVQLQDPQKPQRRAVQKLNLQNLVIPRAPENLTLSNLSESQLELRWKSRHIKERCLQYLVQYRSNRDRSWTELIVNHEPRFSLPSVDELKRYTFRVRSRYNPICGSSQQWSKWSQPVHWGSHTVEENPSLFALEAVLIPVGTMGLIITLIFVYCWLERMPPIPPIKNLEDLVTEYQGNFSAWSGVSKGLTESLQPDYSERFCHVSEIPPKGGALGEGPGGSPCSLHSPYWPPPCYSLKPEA

B1: FJC828 (other)
heavy: EVQLVQSGAEVKKPGESLKISCKGSGYAFTNYLIEWVRQMPGKGLEWMGVINPGSGGTNYNEKFKGQVTISADKSISTAYLQWSSLKASDTAMYYCARWRGEGYYAYFDVWGQGTTVTVSSASTKGPSVFPLAPSSKSTSGGTAALGCLVKDYFPEPVTVSWNSGALTSGVHTFPAVLQSSGLYSLSSVVTVPSSSLGTQTYICNVNHKPSNTKVDKRV[not shown - human IgG1 Fc with changes]
light: AIRLTQSPSSFSASTGDRVTITCKASQSVDYGGGGNFHLRPRDLISNINVIVLELKGSETTFMCEYADETATIVEFLNRWITFSQSIISTLTPTSSSTKKTQLQLEHLLLDLQMILNGINNYKNPKLTRMLTFKFYMPKKATELKHLQCLEEELKPLEEVLNLAQSKGGGGSDSYMNWYQQKPGKAPKLLIYAASNLESGVPSRFSGSGSGTDFTLTISSLQSEDFATYYCQQSNEDPYTFGGGTKVEIKRTVAAPSVFIFPPSDEQLKSGTASVVCLLNNFYPREAKVQWKVDNALQSGNSQESVTEQDSKDSTYSLSSTLTLSKADYEKHKVYACEVTHQGLSSPVTKSFNRGEC
notes: Antibody A IgG with IL-2CP in CDR-L1
B2: PGO345 (other)
heavy: EVQLVQSGAEVKKPGESLKISCKGSGYAFTNYLIEWVRQMPGKGLEWMGVINPGSGGTNYNEKFKGQVTISADKSISTAYLQWSSLKASDTAMYYCARWRGEGYYAYFDVWGQGTTVTVSSASTKGPSVFPLAPSSKSTSGGTAALGCLVKDYFPEPVTVSWNSGALTSGVHTFPAVLQSSGLYSLSSVVTVPSSSLGTQTYICNVNHKPSNTKVDKRV[not shown - human IgG1 Fc with changes]
light: AIRLTQSPSSFSASTGDRVTITCKASQSVDYGGGGSGNFHLRPRDLISNINVIVLELKGSETTFMCEYADETATIVEFLNRWITFSQSIISTLTPTSSSTKKTQLQLEHLLLDLQMILNGINNYKNPKLTRMLTFKFYMPKKATELKHLQCLEEELKPLEEVLNLAQSKGGGGSGGDSYMNWYQQKPGKAPKLLIYAASNLESGVPSRFSGSGSGTDFTLTISSLQSEDFATYYCQQSNEDPYTFGGGTKVEIKRTVAAPSVFIFPPSDEQLKSGTASVVCLLNNFYPREAKVQWKVDNALQSGNSQESVTEQDSKDSTYSLSSTLTLSKADYEKHKVYACEVTHQGLSSPVTKSFNRGEC
notes: Antibody A IgG with IL-2CP in CDR-L1; also called PGQ345; PG035
B3: XUB802 (other)
heavy: EVQLVQSGAEVKKPGESLKISCKGSGYAFTNYLIEWVRQMPGKGLEWMGVINPGSGGTNYNEKFKGQVTISADKSISTAYLQWSSLKASDTAMYYCARWRGEGYYAYFDVWGQGTTVTVSSASTKGPSVFPLAPSSKSTSGGTAALGCLVKDYFPEPVTVSWNSGALTSGVHTFPAVLQSSGLYSLSSVVTVPSSSLGTQTYICNVNHKPSNTKVDKRV[not shown - human IgG1 Fc with changes]
light: AIRLTQSPSSFSASTGDRVTITCKASQSVDYGGGGSGGGGSGGGGSGGGGNFHLRPRDLISNINVIVLELKGSETTFMCEYADETATIVEFLNRWITFSQSIISTLTPTSSSTKKTQLQLEHLLLDLQMILNGINNYKNPKLTRMLTFKFYMPKKATELKHLQCLEEELKPLEEVLNLAQSKGGGGSGGGGSGGGGSGGGGSDSYMNWYQQKPGKAPKLLIYAASNLESGVPSRFSGSGSGTDFTLTISSLQSEDFATYYCQQSNEDPYTFGGGTKVEIKRTVAAPSVFIFPPSDEQLKSGTASVVCLLNNFYPREAKVQWKVDNALQSGNSQESVTEQDSKDSTYSLSSTLTLSKADYEKHKVYACEVTHQGLSSPVTKSFNRGEC
notes: as for B1

target: T1, His-tagged recombinant CD25; assay: SPR, CD25 captured

| binding result | Binder |
| --- | --- |
| no binding (tested: 500 nM) | B1 |
| no binding (tested: 500 nM) | B2 |
| no binding (tested: 500 nM) | B3 |

target: anti-IL-2 antibody clone 5344; assay: ELISA on clone 5344

| EC50 [nM] | Binder |
| --- | --- |
| 0.28 | B1 |
| 0.16 | B2 |
| 0.15 | B3 |

target: T2, trimeric IL-2 receptor …; assay: cell-based or functional assay

| EC50, HEK Blue IL-2 reporter assay (SEAP) [nM] | Binder |
| --- | --- |
| 0.00316 | B1 |
| 0.0032 | B2 |
| 0.00332 | B3 |

target: IL-2R on NK cells and CD8+ T cells of murine splenocytes (C57BL/6) (mouse); assay: cell-based or functional assay

| EC50 CD8 cells (nM), pSTAT5 [nM] | EC50 NK cells (nM), pSTAT5 [nM] | Binder |
| --- | --- | --- |
| 5.8 | 1.9 | B1 |
| 6.6 | 2.3 | B2 |
| 17.1 | 5.8 | B3 |

target: T3, high affinity trimeric IL-2R on …; assay: cell-based or functional assay

| EC50 Treg cells (nM), pSTAT5 [nM] | Binder |
| --- | --- |
| 8.4 | B1 |
| 7.6 | B2 |
| 12.1 | B3 |
